The other results are listed elsewhere or left out. Most values come without repeats; read them as rough.
System: IST-MEL1
Assay: cell count relative to DMSO control; melanoma cells; higher = more viable cells
Conditions: library dose: low library concentration; 72 h
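Further: cell number obtained by counting DAPI-stained nuclei in high-throughput microscope images with image analysis software, screen run in 1,536-well plates.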

Structure (SMILES)	cell count [%]
CS(=O)(=O)CCNCc1ccc(-c2ccc3ncnc(Nc4ccc(OCc5cccc(F)c5)c(Cl)c4)c3c2)o1 [lapatinib] + COc1ccc2c(c1)CCC1C2CCC2(C)C(NCCCCCCN3C(=O)C=CC3=O)CCC12 [U73122] (first compound 0.8 µM, partner dose 0.4 µM)	100
CNC(=O)c1cc(Oc2ccc(NC(=O)Nc3ccc(Cl)c(C(F)(F)F)c3)cc2)ccn1 [sorafenib] + O=C(Nc1ccccc1)c1cc([N+](=O)[O-])ccc1Cl [GW9662] (first compound 0.4 µM, partner dose 2 µM)	106
CS(=O)(=O)CCNCc1ccc(-c2ccc3ncnc(Nc4ccc(OCc5cccc(F)c5)c(Cl)c4)c3c2)o1 [lapatinib] + COc1ccc(-c2ccc3c(N4CCOCC4)nc(N4C[C@@H](C)O[C@@H](C)C4)nc3n2)cc1CO [KU0063794] (first compound 0.8 µM, partner dose 0.02 µM)	97.1
CS(=O)(=O)CCNCc1ccc(-c2ccc3ncnc(Nc4ccc(OCc5cccc(F)c5)c(Cl)c4)c3c2)o1 [lapatinib] + O=C1NC(=O)/C(=C/c2ccc(-c3ccc(F)cc3O)o2)S1 [AS252424] (first compound 0.8 µM, partner dose 1 µM)	91.1
CNC(=O)c1cc(Oc2ccc(NC(=O)Nc3ccc(Cl)c(C(F)(F)F)c3)cc2)ccn1 [sorafenib] + COc1cc(N2CCC(N3CCN(C)CC3)CC2)ccc1Nc1ncc(Cl)c(Nc2ccccc2S(=O)(=O)C(C)C)n1 [NVP-TAE684] (first compound 0.4 µM, partner dose 0.08 µM)	93.2
CN1CCN(c2ccc3nc(-c4c(N)c5c(F)cccc5[nH]c4=O)[nH]c3c2)CC1 [Dovitinib] + COc1cc2ncnc(Nc3ccc(Oc4ccccc4)cc3)c2cc1OC [SrcI1] (first compound 0.1 µM, partner dose 2 µM)	104
CN1CCN(c2ccc3nc(-c4c(N)c5c(F)cccc5[nH]c4=O)[nH]c3c2)CC1 [Dovitinib] + CC(C)CCN1c2nc(Nc3cc(F)c(O)c(F)c3)ncc2N(C)C(=O)C1C [BID1870] (first compound 0.1 µM, partner dose 0.2 µM)	97.3
CN1CCN(c2ccc3nc(-c4c(N)c5c(F)cccc5[nH]c4=O)[nH]c3c2)CC1 [Dovitinib] + O=C1NC(=O)/C(=C/c2ccc(-c3ccc(F)cc3O)o2)S1 [AS252424] (first compound 0.1 µM, partner dose 1 µM)	103
C=CCNC1=C2C[C@@H](C)C[C@H](OC)[C@H](O)[C@@H](C)/C=C(\C)[C@H](OC(N)=O)[C@@H](OC)/C=C\C=C(/C)C(=O)NC(=CC1=O)C2=O [Tanespimycin] + CCN(CC)CCCCNc1ncc2cc(-c3cc(OC)cc(OC)c3)c(NC(=O)NC(C)(C)C)nc2n1 [PD173074] (first compound 0.002 µM, partner dose 0.1 µM)	107
C[C@@H](Oc1cc(-c2cnn(C3CCNCC3)c2)cnc1N)c1c(Cl)ccc(F)c1Cl [Crizotinib] + CCCCCCCCCCCC1=C(O)C(=O)C=C(O)C1=O [Embelin] (first compound 0.2 µM, partner dose 1.2 µM)	101
CN1CCN(c2ccc3nc(-c4c(N)c5c(F)cccc5[nH]c4=O)[nH]c3c2)CC1 [Dovitinib] + CCCCCCCCCCCC1=C(O)C(=O)C=C(O)C1=O [Embelin] (first compound 0.1 µM, partner dose 1.2 µM)	94.9
CN1CCN(c2ccc3nc(-c4c(N)c5c(F)cccc5[nH]c4=O)[nH]c3c2)CC1 [Dovitinib] + CCN(CC)CCCCNc1ncc2cc(-c3cc(OC)cc(OC)c3)c(NC(=O)NC(C)(C)C)nc2n1 [PD173074] (first compound 0.1 µM, partner dose 0.1 µM)	103
CS(=O)(=O)CCNCc1ccc(-c2ccc3ncnc(Nc4ccc(OCc5cccc(F)c5)c(Cl)c4)c3c2)o1 [lapatinib] + COC(=O)c1sccc1S(=O)(=O)Nc1ccc(Nc2ccccc2)cc1OC [GSK0660] (first compound 0.8 µM, partner dose 1 µM)	106
C=CCNC1=C2C[C@@H](C)C[C@H](OC)[C@H](O)[C@@H](C)/C=C(\C)[C@H](OC(N)=O)[C@@H](OC)/C=C\C=C(/C)C(=O)NC(=CC1=O)C2=O [Tanespimycin] + COC(=O)c1sccc1S(=O)(=O)Nc1ccc(Nc2ccccc2)cc1OC [GSK0660] (first compound 0.002 µM, partner dose 1 µM)	97.7
C[C@@H](Oc1cc(-c2cnn(C3CCNCC3)c2)cnc1N)c1c(Cl)ccc(F)c1Cl [Crizotinib] + O=S(=O)(c1ccccc1)N(CC(F)(F)F)c1ccc(C(O)(C(F)(F)F)C(F)(F)F)cc1 [T0901317] (first compound 0.2 µM, partner dose 1.4 µM)	96.7
C=CCNC1=C2C[C@@H](C)C[C@H](OC)[C@H](O)[C@@H](C)/C=C(\C)[C@H](OC(N)=O)[C@@H](OC)/C=C\C=C(/C)C(=O)NC(=CC1=O)C2=O [Tanespimycin] + CCCCCCCCCCCC1=C(O)C(=O)C=C(O)C1=O [Embelin] (first compound 0.002 µM, partner dose 1.2 µM)	96.3
CNC(=O)c1cc(Oc2ccc(NC(=O)Nc3ccc(Cl)c(C(F)(F)F)c3)cc2)ccn1 [sorafenib] + COC(=O)c1sccc1S(=O)(=O)Nc1ccc(Nc2ccccc2)cc1OC [GSK0660] (first compound 0.4 µM, partner dose 1 µM)	95.6
CNC(=O)c1cc(Oc2ccc(NC(=O)Nc3ccc(Cl)c(C(F)(F)F)c3)cc2)ccn1 [sorafenib] + CCN(CC)CCCCNc1ncc2cc(-c3cc(OC)cc(OC)c3)c(NC(=O)NC(C)(C)C)nc2n1 [PD173074] (first compound 0.4 µM, partner dose 0.1 µM)	98.8
CN1CCN(c2ccc3nc(-c4c(N)c5c(F)cccc5[nH]c4=O)[nH]c3c2)CC1 [Dovitinib] + O=c1cc(-c2cccc3c2Sc2ccccc2S3)oc(N2CCOCC2)c1 [KU55933] (first compound 0.1 µM, partner dose 1 µM)	104
C=CCNC1=C2C[C@@H](C)C[C@H](OC)[C@H](O)[C@@H](C)/C=C(\C)[C@H](OC(N)=O)[C@@H](OC)/C=C\C=C(/C)C(=O)NC(=CC1=O)C2=O [Tanespimycin] + O=C1NC(=O)/C(=C/c2ccc(-c3ccc(F)cc3O)o2)S1 [AS252424] (first compound 0.002 µM, partner dose 1 µM)	113
C=CCNC1=C2C[C@@H](C)C[C@H](OC)[C@H](O)[C@@H](C)/C=C(\C)[C@H](OC(N)=O)[C@@H](OC)/C=C\C=C(/C)C(=O)NC(=CC1=O)C2=O [Tanespimycin] + O=C(O)C(=O)Nc1sc2c(c1C(=O)O)CCNC2 [TCS401] (first compound 0.002 µM, partner dose 1.66667 µM)	101
C=CCNC1=C2C[C@@H](C)C[C@H](OC)[C@H](O)[C@@H](C)/C=C(\C)[C@H](OC(N)=O)[C@@H](OC)/C=C\C=C(/C)C(=O)NC(=CC1=O)C2=O [Tanespimycin] + COc1ccc2c(c1)CCC1C2CCC2(C)C(NCCCCCCN3C(=O)C=CC3=O)CCC12 [U73122] (first compound 0.002 µM, partner dose 0.4 µM)	96.5
CNC(=O)c1cc(Oc2ccc(NC(=O)Nc3ccc(Cl)c(C(F)(F)F)c3)cc2)ccn1 [sorafenib] + N#Cc1c(O)c2c(-c3ccc(-c4ccccc4O)cc3)csc2[nH]c1=O [A769662] (first compound 0.4 µM, partner dose 2 µM)	86
CS(=O)(=O)CCNCc1ccc(-c2ccc3ncnc(Nc4ccc(OCc5cccc(F)c5)c(Cl)c4)c3c2)o1 [lapatinib] + Oc1cc(-c2nc(-c3ccccc3)[nH]c2-c2ccncc2)ccc1Cl [L779450] (first compound 0.8 µM, partner dose 0.2 µM)	97.3
CN1CCN(c2ccc3nc(-c4c(N)c5c(F)cccc5[nH]c4=O)[nH]c3c2)CC1 [Dovitinib] + O=C(O)C(=O)Nc1sc2c(c1C(=O)O)CCNC2 [TCS401] (first compound 0.1 µM, partner dose 1.66667 µM)	103
C=CCNC1=C2C[C@@H](C)C[C@H](OC)[C@H](O)[C@@H](C)/C=C(\C)[C@H](OC(N)=O)[C@@H](OC)/C=C\C=C(/C)C(=O)NC(=CC1=O)C2=O [Tanespimycin] + COc1ccc(COc2ccc(Cc3cnc(N)nc3N)cc2OC)cc1 [GW2580] (first compound 0.002 µM, partner dose 1 µM)	101
CNC(=O)c1cc(Oc2ccc(NC(=O)Nc3ccc(Cl)c(C(F)(F)F)c3)cc2)ccn1 [sorafenib] + COc1ccc(-c2ccc3c(N4CCOCC4)nc(N4C[C@@H](C)O[C@@H](C)C4)nc3n2)cc1CO [KU0063794] (first compound 0.4 µM, partner dose 0.02 µM)	96.8
CNC(=O)c1cc(Oc2ccc(NC(=O)Nc3ccc(Cl)c(C(F)(F)F)c3)cc2)ccn1 [sorafenib] + COc1ccc2c(c1)CCC1C2CCC2(C)C(NCCCCCCN3C(=O)C=CC3=O)CCC12 [U73122] (first compound 0.4 µM, partner dose 0.4 µM)	102
